Where “and” joins values, the source holds several entries; their conditions need not be identical. Equal entries are not always repeated. Out of some 420,000 compounds screened, about 64,000 (15%) were called active. This list was built around the results that the source calls inconclusive (neither active nor inactive); the mix of calls is not that of the screen. Calls follow the shape of the dose curve; as a rule, active = well fitted inhibition curve with a large enough effect; inconclusive = small, poorly fitted or top-dose-only effect; inactive = flat fitted curve, though single readings scatter. No potency is given beside an inconclusive call; the fits are too rough.
Test: qHTS for Inhibitors of human tyrosyl-DNA phosphodiesterase 1 (TDP1): qHTS in cells in absence of CPT; also: nearly all actives have a fitted effect of over 55% in size
Settings: DT40 Tdp1-/- hTDP1 cells, no CPT, ATP luminescence, 48 h; activity change, negative = growth inhibition: at 46.2 µM (top of the series)
Method in brief: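 Growth of hTDP1-complemented DT40 Tdp1-knockout cells is measured by ATP luminescence after at least 48 hr compound exposure at 37 °C, with DMSO substituting for the 20 nM CPT used in the parallel screen.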
% is scaled to controls: 0 for no effect and ±100 for the full control effect; potency is read from the fitted curve at half-maximal effect; tags tell the direction and shape of the fitted curve.

Row | SMILES | Potency | activity change, negative = growth inhibition
1 | CC(C)c1ccc(NC(=O)Cc2ccc(NC(=O)N3CCCCc4ccccc43)cc2)cc1 | active: 20.6 µM | –
2 | C/C(=N\NC(=S)Nc1ccc(C)c(C)c1)c1ccc(N2CCOCC2)cc1 | active: 5.8 µM | –
3 | c1ccc2c(c1)nc(CN1CCOCC1)n1c3ccccc3nc21 | active: 16.4 µM | –
4 | CCOc1cccc(CNC(=O)c2ccc(N3CCCC3)c(NC(=O)Nc3ccccc3CC)c2)c1 | inconclusive [inhibitor, single point] | –
5 | O=C(O)C1=C2C(=O)Nc3cccc(c32)C2(C1)C(=O)Nc1ccccc12 (stereo not drawn) | – | inactive: -21.6%
6 | Cc1cccc(OCC(O)Cn2c(=N)n(CCN3CCOCC3)c3ccccc32)c1 (stereo not drawn) | inconclusive [inhibitor, single point] | –
7 | CCOc1ccc2[nH]c(=O)c(CN(CC3COCCO3)C(=O)C3CC3)cc2c1 (stereo not drawn) | – | inactive: -9.09%
8 | COC(Cn1c(-c2cccc(S(=O)(=O)N(C)C)c2)n[nH]c1=S)OC | inconclusive [inhibitor, single point] | –
9 | O=C(CSc1ncn[nH]1)Nc1ccccc1Sc1ccc(Cl)cc1 | inconclusive [inhibitor, single point] | –
10 | Cc1ccc(S(=O)(=O)Nc2ccccc2C=NNC(=O)c2ccncc2)cc1 | inconclusive [inhibitor, single point] | –
11 | CC(C)Cc1[nH]c(=O)c(C#N)c2c1COC(C)(C)C2 | – | inactive: 0.278%
12 | CCCOc1c(Br)cc(C2C3=C(CCCC3=O)N(CC)C3=C2C(=O)CCC3)cc1OC | inconclusive [inhibitor, single point] | –
13 | O=C1CC[C@H](O)CCN1[C@H](CSc1ccc(Br)cc1)Cc1ccccc1 | active: 15.8 µM and active: 16.4 µM | –
14 | O=C(NC1CCCC1)C(c1cccs1)N(Cc1ccco1)C(=O)Cn1nnc(-c2cccs2)n1 (stereo not drawn) | inconclusive [inhibitor, single point] | –
15 | COc1ccc(N2CCN(C3CCCN(Cc4ccc(F)c(F)c4)C3)CC2)cc1 (stereo not drawn) | inconclusive [inhibitor, single point] | –
16 | CC(C)CC1NC(=O)N(Cc2nc3ccccc3s2)C1=O (stereo not drawn) | inconclusive [inhibitor, full curve] | –
17 | COc1cccc(NC(=O)CN(C)C(=O)c2ccccc2CCc2ccccc2)c1 | inconclusive [inhibitor, single point] | –
18 | O=C(Nc1ccccc1)C1=C[C@H](C2CC2)C[C@H](OCCCCO)O1 | – | inactive: 0.13%
19 | CCCCOc1ccc(CNC(=O)CN2C(=O)CCn3nc(-c4cn(C)c5ccccc45)cc32)cc1 | – | inactive: -22.2%
20 | Cc1ccc(CNS(=O)(=O)c2ccc(-n3cccn3)cc2)cc1 | inconclusive [inhibitor, single point] | –
21 | CCn1nnnc1NCc1ccc(OCc2ccc(F)cc2Cl)c(OC)c1 | inconclusive [inhibitor, single point] | –
22 | O=C(CCNS(=O)(=O)c1cccc2nsnc12)N1CCc2ccccc21 | inconclusive [inhibitor, full curve, poor fit] | –
23 | O=[N+]([O-])c1ccc(N(CCO)Cc2ccccc2)c([N+](=O)[O-])c1 | – | inactive: -59%

Row | SMILES | Potency | activity change, negative = growth inhibition
24 | CCOc1cc(/C=N/NC(=O)c2cc(C)n(-c3ccc(F)cc3)c2C)ccc1O | active: 20.6 µM | –
25 | Cc1ccc(CCNC(=O)C2CCC(=O)N2C(C)C)cc1 (stereo not drawn) | – | inactive: -18.1%
26 | CCCn1c(SCc2ccon2)nc2ccccc2c1=O | inconclusive [inhibitor, single point] | –
27 | COCCn1c(SCC(=O)NC(=O)NCc2ccccc2)nc2ccccc21 | inconclusive [inhibitor, single point] | –
28 | COc1ccc2cc3cc(C(=O)N4CCN(c5ccccn5)CC4)oc3nc2c1 | active: 18.4 µM | –
29 | CCn1cc(S(=O)(=O)c2ccc(OC)cc2)c(=O)c2cc(F)c(N3CCCCCC3)cc21 | inconclusive [inhibitor, single point] | –
30 | Cc1ccccc1Nc1cccc2nonc12 | – | inactive: -24.7%
31 | CC(C)c1ccc(NC(=S)N2CCCC(c3ccc(F)cc3)=N2)cc1 | active: 29.1 µM | –
32 | COc1cc(OC)c(NC(=O)CC(C)S(=O)(=O)c2ccc3c(c2)NC(=O)CO3)cc1Cl (stereo not drawn) | – | inactive: -7.09%
33 | COc1cc2c(NCCCCCO)ncnc2c(OC)c1OC | inconclusive [inhibitor, partial curve] | –
34 | Cc1ccc(S(=O)(=O)N2[C@H](CC(=O)c3ccc(F)cc3)OC[C@@H]2C)cc1 | inconclusive [inhibitor, single point] | –
35 | Cc1c(C(=O)NCc2cccnc2)oc2ccc(S(=O)(=O)N3CCCCCC3)cc12 | inconclusive [inhibitor, partial curve] | –
36 | Cc1ccnc(NC(=O)CCC(=O)N(CC(=O)NCCc2ccccc2)c2ccccc2F)c1 | – | inactive: -4.61%
37 | Cc1ccc(S(=O)(=O)Cn2nnnc2CN2CCN(Cc3ccc4c(c3)OCO4)CC2)cc1 | inconclusive [inhibitor, single point] | –
38 | Cc1c(C(=O)O)cccc1-c1ccc(C=O)o1 | inconclusive [inhibitor, partial curve] | –
39 | O=C(c1cccc(F)c1)N1CCN(c2cccc(C(F)(F)F)c2)CC1 | inconclusive [inhibitor, single point] | –
40 | Cc1ccc(C(=O)NCC(=O)NCC(=O)OCc2ccc(Cl)cc2)cc1 | – | inactive: -8.35%
41 | Cc1cc(C)n(CCc2nc(-c3cccs3)cs2)n1 | inconclusive [inhibitor, single point] | –
42 | C=CCNC(=O)/C(C#N)=C/c1cn(-c2ccccc2)nc1-c1ccc(OC)c([N+](=O)[O-])c1 | inconclusive [inhibitor, partial curve, poor fit] | –
43 | CC(C)CC(=O)Nc1ccc(Oc2ccc3c(c2)C(=O)NC3=O)cc1 | – | inactive: -6.18%
44 | O=C(c1ccc(F)cc1)N1CCN(c2cnn(-c3ccccc3)c(=O)c2Cl)CC1 | inconclusive [inhibitor, partial curve] | –
45 | CCN1CCN(c2nc3c(S(=O)(=O)c4ccc(C)cc4)nnn3c3ccsc23)CC1 | – | inactive: -10.5%
46 | COCCNS(=O)(=O)c1ccc2c(c1)Cc1cc(S(=O)(=O)NCCOC)ccc1-2 | inconclusive [inhibitor, single point] | –

Row | SMILES | Potency | activity change, negative = growth inhibition
47 | CN(CCC(=O)Nc1ccc(Br)cc1)Cc1ccccc1 | inconclusive [inhibitor, single point] | –
48 | O=C(c1cc2cc(Br)ccc2o1)N1CCN(c2ccccc2)CC1 | inconclusive [inhibitor, single point] | –
49 | C/C=C(\C)C(=O)OC1[C@H](OC(C)=O)C2(CO)C(CC1(C)C)C1=CCC3C4(C)CCC(O[C@@H]5O[C@H](C(=O)O)[C@@H](O[C@@H]6O[C@H](CO)[C@@H](O)[C@H](O)[C@H]6O)[C@H](O)[C@H]5O[C@H]5O[C@H](CO)[C@@H](O)[C@H](O)[C@H]5O)[C@](C)(CO)C4CCC3(C)[C@]1(C)C[C@H]2O (stereo partly drawn) | active: 14.6 µM | –
50 | O=C(COc1cccc(F)c1)N[C@@H](Cc1ccccc1)c1nc2ccccc2[nH]1 | inconclusive [inhibitor, partial curve] | –
51 | O=S(=O)(Cc1ccco1)Cc1nc(-c2ccc(Cl)cc2)cs1 | – | inconclusive: -32.5% [inhibitor]
52 | Cc1c(C(=O)NC(=S)Nc2ccccc2N2CCCC2)cccc1[N+](=O)[O-] | inconclusive [inhibitor, single point] | –
53 | CCCCN(C(=O)c1ccc(-c2ccc([N+](=O)[O-])cc2)o1)c1c(N)n(CC(C)C)c(=O)[nH]c1=O | – | inactive: -20.6%
54 | COc1ccc(CNC(NC(=O)c2ccccc2)(C(F)(F)F)C(F)(F)F)cc1 | inconclusive [inhibitor, single point] | –
55 | CN(CC(O)Cn1cnc2c1c(=O)n(C)c(=O)n2C)c1ccccc1 (stereo not drawn) | inconclusive [inhibitor, full curve] | –
56 | CC1(C(=O)NS(C)(=O)=O)CCN1C(=O)Cc1ccc(Cl)cc1Cl (stereo not drawn) | – | inactive: 6.74%
57 | CCCCC(=O)Nc1ccc(C)c(S(=O)(=O)N2CCCCCC2)c1 | inconclusive [inhibitor, single point] | –
58 | Cc1ccc(-n2nnnc2Sc2nc([N+](=O)[O-])nn2C)cc1C | inconclusive [inhibitor, single point] | –
59 | Cn1nc([N+](=O)[O-])nc1Sc1cccc2cccnc12 | active: 20.6 µM | –
60 | COc1ccc(-c2noc(CCCC(=O)NCc3ccco3)n2)cc1OC | inconclusive [inhibitor, single point] | –
61 | CC(=O)NCCNC(=O)C1(C)Cc2c(-c3cccc(C(N)=O)c3)ccnc2O1 (stereo not drawn) | – | inactive: -3.63%
62 | CCO[C@H]1OC(C(=O)Nc2ccccc2)=C[C@@H](c2csc3ccccc23)[C@@H]1CCCO | – | inactive: -101%
63 | CCN(CC)S(=O)(=O)c1ccc(Cc2ncc(C(F)(F)F)cc2Cl)s1 | active: 20.6 µM | –
64 | CCN(CC)C(=O)c1ccc2c(c1)N(Cc1ccccc1F)C(=O)c1ccccc1S2=O (stereo not drawn) | – | inactive: -15.3%
65 | Cc1ccc(C2CCN(C(=S)NC(C)(C)C)C2)cc1 (stereo not drawn) | inconclusive [inhibitor, single point] | –
66 | COc1ccc(N2CCN(CCS(=O)(=O)c3cc(Cl)ccc3Cl)CC2)cc1 | inconclusive [inhibitor, single point] | –
67 | Cc1ccc(CNC(=O)CSc2ccc(-c3ccccn3)nn2)cc1 | inconclusive [inhibitor, single point] | –
68 | COCCNc1nc(-c2cccc(NS(C)(=O)=O)c2)nc2ccccc12 | inconclusive [inhibitor, single point] | –

Source: PubChem BioAssay AID686978 (National Center for Advancing Translational Sciences (NCATS), 2013)
